In PubChem BioAssay AID463173 (ICCB-Longwood Screening Facility, Harvard Medical School, 2010):
In all, about 52,000 compounds went through this assay and about 1,700 (3.3%) were called active. No stated cut-off is given here; in the data, active means survival mostly below about 52% (no sharp cut-off); inactive means mostly above about 56%. This is one part of the list.

Test system: Wild type
Test: S. aureus survival, RN4220 and DeltatarO strains – OD600, teichoic acid synthesis inhibitors, primary screen (AID 463173)
Conditions: S. aureus RN4220 wild type/DeltatarO growth, OD600, 18 h, stronger effect = lower value, screened at 18.75 µg/mL (by protocol)

Structure (SMILES) | survival
CC1=C(C(=O)Nc2ccc(C)cc2C)C(c2ccccc2)n2ncc(C(=O)Nc3ccccc3)c2N1 (centres undefined) | inactive: 75%
CCOC(=O)c1c(-c2ccccc2)csc1NC(=O)c1cc(-c2ccc(Cl)cc2)on1 | inactive: 85%
Cc1ccccc1-c1nc2cc(NC(=O)COc3ccc(F)cc3)ccc2o1 | inactive: 85%
O=C(NC1CCCC1)C(c1ccc(O)cc1)N(C(=O)Cn1nnc(-c2cccs2)n1)C1CCCC1 (centres undefined) | inactive: 100%
CCOC(=O)CSc1nc2ccc(NC(=O)c3ccccc3F)cc2s1 | inactive: 69%
CCOC(=O)c1sc(NC(=O)c2cc(-c3ccc(F)cc3)on2)c(C(=O)OCC)c1C | inactive: 100%
COC(=O)c1ccc2c(=O)n(CCCCCC(=O)N3CCN(c4ccc(OC)cc4)CC3)c(=O)[nH]c2c1 | inactive: 66%
Cc1c(CC(=O)NCCc2ccc(Cl)cc2)c(=O)oc2c(C)c3occ(C(C)(C)C)c3cc12 | inactive: 87%
Cc1ccc(NC(=O)C2CCCN(S(=O)(=O)c3cccc4cccnc34)C2)c(C)c1 (centres undefined) | inactive: 72%
CCOc1ccc(CNC(=O)c2ccc(Sc3ccc(Cl)cc3)c(NC(C)=O)c2)cc1OC | inactive: 89%
O=C(CCC1CCCC1)N1CCN(C(=O)Cc2ccccc2)CC1 | inactive: 94%
CCS(=O)(=O)c1nc(S(=O)(=O)c2ccc(Cl)cc2)c(NCc2ccccc2Cl)s1 | inactive: 83%
COc1ccc2oc(=O)c(C(N)=O)cc2c1 | inactive: 99%
O=C(CSc1nnc2[nH]c(=O)cc(-c3ccccc3)n12)Nc1cc(C(F)(F)F)ccc1Cl | inactive: 64%
CCOc1ccc(NC(=O)CN(C)S(=O)(=O)c2cnc[nH]2)cc1 | inactive: 76%
COc1ccc(NC(=O)NC(C)c2c(-n3cccc3)sc3c2CCN(C)C3)c(OC)c1 (centres undefined) | inactive: 67%
Nc1c(C(=O)Nc2cccc(C(F)(F)F)c2)c2ccccn2c1C(=O)c1ccccc1 | inactive: 92%
Cc1ccc2oc(-c3cc(NC(=O)/C=C/c4ccco4)ccc3Cl)nc2c1 | inactive: 25%
CC(=O)Nc1nonc1-c1nc2ccccc2n1Cc1ccccc1Br | inactive: 97%
COc1cc2c(cc1OC)C(COc1ccc3c(C)cc(=O)oc3c1)N(C(=O)CC(C)C)CC2 (centres undefined) | inactive: 69%
Cc1ccc2c(c1)N(C(=O)Nc1cccc3c1CCCC3)CC(C)O2 (centres undefined) | inactive: 98%
COc1c(Cl)cc(Cl)cc1/C=C(\C#N)C(N)=O | inactive: 100%
Brc1ccc2nc(SCCOc3ccccc3)[nH]c2c1 | active: 0%

Structure (SMILES) | survival
CCOC(=O)c1noc2nc(C)n(Cc3ccc([N+](=O)[O-])cc3)c(=O)c12 | inactive: 85%
Cc1cccc(Cn2nnc3c(=O)[nH]c(C4CCN(C(=O)c5ccc(F)cc5)CC4)nc32)c1 | inactive: 29%
COc1ccc(NC(=O)CCc2c(C)nc3c(-c4ccc(F)cc4)c(C)nn3c2C)c(OC)c1 | inactive: 78%
Cc1ccccc1CN1CCCN(CC(=O)Nc2ccc3c(c2)OCCO3)S1(=O)=O | inactive: 72%
COC(=O)c1cc(NC(=O)c2ccc(-c3ccc(Cl)cc3Cl)o2)cc(C(=O)OC)c1 | inactive: 65%
O=C(NCc1cccc(Cl)c1)C1CCCN(c2ncnc3onc(-c4ccc(F)cc4)c23)C1 (centres undefined) | inactive: 138%
CCn1c(=O)cc(SCC(=O)N2CCN(c3ccccc3F)CC2)c2ccccc21 | inactive: 73%
CCOc1ccc(NC(=O)c2c(NC(=O)c3cccs3)sc3c2CCC(C(C)(C)C)C3)cc1 (centres undefined) | inactive: 76%
COc1ccccc1NC(=O)c1cc(S(=O)(=O)NCCC2=CCCCC2)ccc1F | inactive: 47%
CN1CCN(C(CNC(=O)c2ccccc2)c2ccc3c(c2)OCO3)CC1 (centres undefined) | inactive: 81%
CNC(=O)C1CCN(c2nc3ccccc3nc2C(F)(F)F)CC1 | inactive: 79%
O=C(Nc1ccc(C(F)(F)F)cc1)N1CCC(N2CCCCC2)CC1 | inactive: 109%
CCc1ccc(NC(=O)N2CCN(C(=O)c3nsc4ccccc34)CC2)cc1 | inactive: 76%
CNC(=O)c1ccc(CSc2nc3ccncc3n2Cc2ccc(C)cc2)cc1 | inactive: 76%
COc1cc(Cl)c(C)cc1NC(=O)c1cnc2c(-c3cccc(C)c3)c(C)nn2c1C | active: 14%
Cc1ccsc1CN1CCc2nc(N3CCN(c4ccccc4F)CC3)ncc2C1 | inactive: 67%
COCC(O)CNc1ccccc1 (centres undefined) | inactive: 109%
CCOc1ccc(OCC)c(Nc2nc3ccc(Cl)cc3n3cnnc23)c1 | inactive: 69%
COc1cccc(CNC(=O)Cn2c(C)c3cnn(-c4ccccc4)c(=O)c3c2C)c1 | inactive: 86%
CCC(Oc1ccccc1)C(=O)N1CCOCC1 (centres undefined) | inactive: 113%
CCCN(C(=O)Cn1cc(S(=O)(=O)N2CCN(c3ccccc3F)CC2)c2ccccc2c1=O)c1cccc(C)c1 | inactive: 92%
CC(C)CN(CCNC(=O)c1cc(-c2ccc(Cl)s2)nc2ccccc12)CC(C)C | inactive: 80%
CC(C)(C)C(=O)Cn1c(=O)n(-c2ccc(Cl)c(Cl)c2)c(=O)c2c3c(sc21)CCCC3 | inactive: 96%

Structure (SMILES) | survival
COc1ccc(C(=O)NCCNc2nc3c(C)cccc3cc2C#N)cc1OC | inactive: 102%
Cc1cc(C)cc(N2CCn3c2nc2c3c(=O)n(CCCc3ccccc3)c(=O)n2C)c1 | inactive: 78%
COCc1cc(C)nc2sc(C(=O)Nc3cc(C)ccc3F)c(N)c12 | inactive: 68%
COc1ccc(CCNC(=O)Cn2cc(C(=O)c3ccc(F)cc3)c(=O)c3ccc(C)nc32)cc1OC | inactive: 152%
Cc1ccc(CNC(=O)CCC(=O)N2CCSc3ccccc32)cc1 | inactive: 109%
Cc1ccc(CNC(=O)CCCn2c(=O)c3ccccc3n(Cc3ccc(Cl)cc3)c2=O)cc1 | inactive: 73%
CN(C(=O)CSc1nnc(-c2ccc([N+](=O)[O-])cc2)o1)c1ccccc1 | inactive: 75%
COCCCNC(=O)C1CCCN(c2nn3cc(-c4ccc(C)cc4)nc3s2)C1 (centres undefined) | inactive: 146%
CCOc1ccc(-c2noc(CSc3nnc(Cc4ccccc4)n3-c3cccc(C)c3)n2)cc1 | inactive: 65%
Cc1ccc(-c2nc3cc(C(C)C)ccc3o2)cc1NC(=O)c1cc([N+](=O)[O-])ccc1N1CCOCC1 | inactive: 103%
COC(=O)C1C(=O)C2=C(CC1C)Nc1ccccc1NC2c1ccc(O)c(OC)c1 (centres undefined) | inactive: 114%
Cc1cccc(-c2nc3ccccc3n3c(-c4ccccc4)c4c(=O)n(C)c(=O)n(C)c4c23)c1 | inactive: 121%
O=C(Nc1ccc(F)c(Cl)c1)N1CCC(CN2CCc3ccccc3C2)CC1 | inactive: 57%
Nc1ncc2c(n1)CC(c1ccco1)CC2=O (centres undefined) | inactive: 92%
NCCNC(=O)CCc1n[nH]c(=O)c2ccccc12 | inactive: 113%
NC1CCN(C(=O)NC2CCCCC2)CC1 | inactive: 114%
CCC(C)NC(=O)CCc1c(C)nc2cc(-c3ccc(OC)cc3OC)nn2c1C (centres undefined) | inactive: 71%
Cc1cccc(CCNC(=O)C2CCN(c3nc4ccccc4nc3C(F)(F)F)CC2)c1 | inactive: 75%
CCc1ccc(NC(=O)Cn2cnc3sc(C)c(S(=O)(=O)N4CCN(c5ccccc5OC)CC4)c3c2=O)cc1 | inactive: 138%
O=C(Oc1ccnc2cc(Cl)ccc12)N1CCCCC1 | inactive: 105%
Cc1ccc(-n2ncc3c(NCC(C)C)ncnc32)c(C)c1 | active: 10%
CCc1cccc(NC(=O)c2ccc(CNS(=O)(=O)c3ccc4c(c3)C(C)(C)C(=O)N4C)cc2)c1 | inactive: 77%
COc1ccccc1-c1cc2nc(C)c(CCC(=O)Nc3cc(C)ccc3C)c(C)n2n1 | inactive: 82%

Structure (SMILES) | survival
CN1C(=O)C2C3c4ccccc4C(c4ccccc43)C2C1=O (centres undefined) | inactive: 106%
COC(=O)c1ccccc1-n1cc2c(c1-c1cccc(C)c1)c(=O)n(C)c(=O)n2C | inactive: 93%
Cc1ccc(C)c(NC(=O)Nc2cccc(-c3cn4cccnc4n3)c2)c1 | inactive: 71%
COc1ccc(-n2nnc(-c3nc(-c4cccs4)no3)c2N)cc1 | inactive: 96%
CCN(C(=O)c1ccco1)c1nnc(Cn2nnc3ccccc32)s1 | inactive: 108%
Cc1oc(-c2ccccc2F)nc1CSc1nnc(C)n2c1cc1occc12 | inactive: 99%
CC(C)(C)OC(=O)N1CCC(c2c(C(=O)N3CCOCC3)cnn2-c2cccc(F)c2)CC1 | inactive: 136%
O=C(CSc1nc2c(c(=O)[nH]1)CN(Cc1ccc3c(c1)OCO3)CC2)Nc1ccc(F)c(F)c1 | inactive: 105%
CCCN(CCC)CCNC(=O)C1CCN(c2nc3ccc(CC)cc3s2)CC1 | inactive: 67%
CCOC(=O)c1cnc2ccc(Cl)cc2c1Nc1ccc(N2CCOCC2)cc1 | active: 0%
O=C(Nc1ccc(C(=O)N2CCN(c3ccccc3)CC2)cc1)c1nsc2ccccc12 | active: -3%
Cc1ccc(S(=O)(=O)c2cn(Cc3ccc(F)cc3)c3cc(N4CCCC4)c(F)cc3c2=O)cc1 | inactive: 67%
CCOc1ccc(CCNC(=O)c2cc3sc(CC)cc3n2C)cc1OCC | inactive: 72%
Cc1ccc(S(=O)(=O)N2CCC(n3c(C)nc4cccnc43)CC2)c(C)c1 | inactive: 71%
CCc1ccccc1NC(=O)C(=O)NCCc1sc(-c2cccc(F)c2)nc1C | inactive: 65%
N#Cc1c(-c2ccc3c(c2)OCO3)cc(-c2ccc(F)cc2)nc1N | inactive: 100%
Cc1ccc(CNC(=O)c2ccc(-c3nc(CS(=O)(=O)c4ccc(C)cc4)c(C)o3)cc2)cc1 | inactive: 67%
CCCCNCc1cccn1-c1ccccc1 | inactive: 107%
Cc1[nH]c2ccccc2c1SCCNC(=O)c1ccccc1F | inactive: 60%
CC1CCN(C(=O)CSc2nc3cc4c(cc3cc2C#N)OCO4)CC1 | inactive: 102%
